{"source": "the supplement of paper PMC8728848", "binders": {"B1": {"name": "Clone730PsrP (Streptococcus pneumoniae) (protein)", "chain": "MDHHHHHHHHHHASENLYFQGAMVVGSQTAAATEATAKKVEEDRKKPASDYVASVTNVNLQSYAKRRKRSVDSIEQLLASIKNAAVFSGNTIVNGAPAINASLNIAKSETKVYTGEGVDSVYRVPIYYKLKVTNDGSKLTFTYTVTYVNPKTNDLGNISSMRPGYSIYNSGTSTQTMLTLGSDLGKPSGVKNYITDKNGRQVLSYNTSTMTTQGSGYTWGNGAQMNGFFAKKGYGLTSSWTVPITGTDTSFTFTPYAARTDRIGINYFNGGGKVVESSTT"}}, "assay_in_all_cases": "glycan array binding signal (z-score within array); higher = stronger binding", "conditions_in_all_cases": "glycan notation: IUPAC condensed, linker removed", "key": {"Glc(b1-6)Glc": {"target": "Glc(b1-6)Glc", "summary_of_the_method": "(§1)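 Negative Z-scores can be read as non-binding. The Z-score is calculated within each array and then averaged across arrays of one protein sequence at different concentrations or buffers and across linkers. Arrays, 3228 in all, were curated from the Consortium for Functional Glycomics database and kept only where the protein sequence was available.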"}, "GlcA(b1-3)Gal": {"target": "GlcA(b1-3)Gal", "summary_of_the_method": "as §1"}, "GlcA(b1-3)GlcNAc": {"target": "GlcA(b1-3)GlcNAc", "summary_of_the_method": "as §1"}, "GlcA(b1-6)Gal": {"target": "GlcA(b1-6)Gal", "summary_of_the_method": "as §1"}, "[1]": {"target": "GlcA3S(b1-3)Gal(b1-4)GlcNAc(b1-2)Man", "summary_of_the_method": "as §1"}, "[2]": {"target": "GlcA3S(b1-3)Gal(b1-4)GlcNAc(b1-3)Gal(b1-4)Glc", "summary_of_the_method": "as §1"}, "[3]": {"target": "GlcNAc(a1-3)Gal(b1-4)GlcNAc", "summary_of_the_method": "as §1"}, "[4]": {"target": "GlcNAc(a1-4)Gal(b1-3)GlcNAc", "summary_of_the_method": "as §1"}, "[5]": {"target": "GlcNAc(a1-4)Gal(b1-4)GalNAc", "summary_of_the_method": "as §1"}, "[6]": {"target": "GlcNAc(a1-4)Gal(b1-4)GlcNAc", "summary_of_the_method": "as §1"}, "[7]": {"target": "GlcNAc(a1-4)Gal(b1-4)GlcNAc(b1-3)Gal(b1-4)Glc", "summary_of_the_method": "as §1"}, "[8]": {"target": "GlcNAc(a1-4)Gal(b1-4)GlcNAc(b1-3)Gal(b1-4)GlcNAc", "summary_of_the_method": "as §1"}, "[9]": {"target": "GlcNAc(a1-4)Gal(b1-4)GlcNAc(b1-3)Gal(b1-4)GlcNAc(b1-3)Gal(b1-4)GlcNAc", "summary_of_the_method": "as §1"}, "[10]": {"target": "GlcNAc(a1-4)Gal(b1-4)GlcNAc(b1-3)Gal(b1-4)[Fuc(a1-3)]GlcNAc(b1-3)Gal(b1-4)[Fuc(a1-3)]GlcNAc", "summary_of_the_method": "as §1"}, "[11]": {"target": "GlcNAc(a1-6)Gal(b1-4)GlcNAc", "summary_of_the_method": "as §1"}, "[12]": {"target": "GlcNAc(b1-2)Gal(b1-3)GalNAc", "summary_of_the_method": "as §1"}, "[13]": {"target": "GlcNAc(b1-2)Man(a1-3)[GlcNAc(b1-2)Man(a1-6)]Man(b1-4)GlcNAc(b1-4)GlcNAc", "summary_of_the_method": "as §1"}, "[14]": {"target": "GlcNAc(b1-2)Man(a1-3)[GlcNAc(b1-2)Man(a1-6)]Man(b1-4)GlcNAc(b1-4)[Fuc(a1-6)]GlcNAc", "summary_of_the_method": "as §1"}, "[15]": {"target": "GlcNAc(b1-2)Man(a1-3)[GlcNAc(b1-4)][GlcNAc(b1-2)Man(a1-6)]Man(b1-4)GlcNAc(b1-4)GlcNAc", "summary_of_the_method": "as §1"}, "[16]": {"target": "GlcNAc(b1-2)Man(a1-3)[GlcNAc(b1-4)][GlcNAc(b1-2)Man(a1-6)]Man(b1-4)GlcNAc(b1-4)[Fuc(a1-6)]GlcNAc", "summary_of_the_method": "as §1"}, "[17]": {"target": "GlcNAc(b1-2)[GlcNAc(b1-4)]Man(a1-3)[GlcNAc(b1-2)Man(a1-6)]Man(b1-4)GlcNAc(b1-4)GlcNAc", "summary_of_the_method": "as §1"}, "[18]": {"target": "GlcNAc(b1-2)[GlcNAc(b1-4)]Man(a1-3)[GlcNAc(b1-4)][GlcNAc(b1-2)Man(a1-6)]Man(b1-4)GlcNAc(b1-4)GlcNAc", "summary_of_the_method": "as §1"}, "[19]": {"target": "GlcNAc(b1-2)[GlcNAc(b1-4)]Man(a1-3)[GlcNAc(b1-4)][GlcNAc(b1-2)[GlcNAc(b1-6)]Man(a1-6)]Man(b1-4)GlcNAc(b1-4)GlcNAc", "summary_of_the_method": "as §1"}, "[20]": {"target": "GlcNAc(b1-2)[GlcNAc(b1-4)]Man(a1-3)[GlcNAc(b1-4)][GlcNAc(b1-2)[GlcNAc(b1-6)]Man(a1-6)]Man(b1-4)GlcNAc(b1-4)[Fuc(a1-6)]GlcNAc", "summary_of_the_method": "as §1"}, "[21]": {"target": "GlcNAc(b1-2)[GlcNAc(b1-6)]Man(a1-6)[GlcNAc(b1-2)Man(a1-3)]Man(b1-4)GlcNAc(b1-4)GlcNAc", "summary_of_the_method": "as §1"}, "[22]": {"target": "GlcNAc(b1-2)[GlcNAc(b1-6)]Man(a1-6)[GlcNAc(b1-2)Man(a1-3)]Man(b1-4)GlcNAc(b1-4)[Fuc(a1-6)]GlcNAc", "summary_of_the_method": "as §1"}, "[23]": {"target": "GlcNAc(b1-2)[GlcNAc(b1-6)]Man(a1-6)[GlcNAc(b1-4)][GlcNAc(b1-2)Man(a1-3)]Man(b1-4)GlcNAc(b1-4)GlcNAc", "summary_of_the_method": "as §1"}, "GlcNAc(b1-3)Fuc": {"target": "GlcNAc(b1-3)Fuc", "summary_of_the_method": "as §1"}, "GlcNAc(b1-3)Gal": {"target": "GlcNAc(b1-3)Gal", "summary_of_the_method": "as §1"}, "[24]": {"target": "GlcNAc(b1-3)Gal(b1-3)GalNAc", "summary_of_the_method": "as §1"}, "GlcNAc(b1-3)Gal(b1-4)Glc": {"target": "GlcNAc(b1-3)Gal(b1-4)Glc", "summary_of_the_method": "as §1"}, "[25]": {"target": "GlcNAc(b1-3)Gal(b1-4)GlcNAc", "summary_of_the_method": "as §1"}, "[26]": {"target": "GlcNAc(b1-3)Gal(b1-4)GlcNAc(b1-2)Man(a1-3)[GlcNAc(b1-3)Gal(b1-4)GlcNAc(b1-2)Man(a1-6)]Man(b1-4)GlcNAc(b1-4)GlcNAc", "summary_of_the_method": "as §1"}, "[27]": {"target": "GlcNAc(b1-3)Gal(b1-4)GlcNAc(b1-2)Man(a1-3)[GlcNAc(b1-3)Gal(b1-4)GlcNAc(b1-2)Man(a1-6)]Man(b1-4)GlcNAc(b1-4)[Fuc(a1-6)]GlcNAc", "summary_of_the_method": "as §1"}, "[28]": {"target": "GlcNAc(b1-3)Gal(b1-4)GlcNAc(b1-2)[GlcNAc(b1-3)Gal(b1-4)GlcNAc(b1-6)]Man(a1-6)[GlcNAc(b1-3)Gal(b1-4)GlcNAc(b1-2)Man(a1-3)]Man(b1-4)GlcNAc(b1-4)GlcNAc", "summary_of_the_method": "as §1"}, "[29]": {"target": "GlcNAc(b1-3)Gal(b1-4)GlcNAc(b1-3)Gal(b1-4)GlcNAc", "summary_of_the_method": "as §1"}, "[30]": {"target": "GlcNAc(b1-3)Gal(b1-4)GlcNAc(b1-3)Gal(b1-4)GlcNAc(b1-2)Man(a1-3)[GlcNAc(b1-3)Gal(b1-4)GlcNAc(b1-3)Gal(b1-4)GlcNAc(b1-2)Man(a1-6)]Man(b1-4)GlcNAc(b1-4)GlcNAc", "summary_of_the_method": "as §1"}}, "note": "The other results are listed elsewhere or left out.", "data": [{"binder": "B1", "values": [{"measurement": "glycan array binding signal (z-score)", "setting": "Glc(b1-6)Glc", "value": 0.065}, {"measurement": "glycan array binding signal (z-score)", "setting": "GlcA(b1-3)Gal", "value": -0.489}, {"measurement": "glycan array binding signal (z-score)", "setting": "GlcA(b1-3)GlcNAc", "value": 1.24}, {"measurement": "glycan array binding signal (z-score)", "setting": "GlcA(b1-6)Gal", "value": -0.151}, {"measurement": "glycan array binding signal (z-score)", "setting": "[1]", "value": -0.412}, {"measurement": "glycan array binding signal (z-score)", "setting": "[2]", "value": -0.191}, {"measurement": "glycan array binding signal (z-score)", "setting": "[3]", "value": -0.247}, {"measurement": "glycan array binding signal (z-score)", "setting": "[4]", "value": -0.305}, {"measurement": "glycan array binding signal (z-score)", "setting": "[5]", "value": -0.514}, {"measurement": "glycan array binding signal (z-score)", "setting": "[6]", "value": -0.546}, {"measurement": "glycan array binding signal (z-score)", "setting": "[7]", "value": -0.43}, {"measurement": "glycan array binding signal (z-score)", "setting": "[8]", "value": -0.508}, {"measurement": "glycan array binding signal (z-score)", "setting": "[9]", "value": -0.533}, {"measurement": "glycan array binding signal (z-score)", "setting": "[10]", "value": -0.348}, {"measurement": "glycan array binding signal (z-score)", "setting": "[11]", "value": -0.199}, {"measurement": "glycan array binding signal (z-score)", "setting": "[12]", "value": 0.582}, {"measurement": "glycan array binding signal (z-score)", "setting": "[13]", "value": -0.204}, {"measurement": "glycan array binding signal (z-score)", "setting": "[14]", "value": -0.183}, {"measurement": "glycan array binding signal (z-score)", "setting": "[15]", "value": -0.279}, {"measurement": "glycan array binding signal (z-score)", "setting": "[16]", "value": -0.472}, {"measurement": "glycan array binding signal (z-score)", "setting": "[17]", "value": -0.398}, {"measurement": "glycan array binding signal (z-score)", "setting": "[18]", "value": -0.608}, {"measurement": "glycan array binding signal (z-score)", "setting": "[19]", "value": -0.485}, {"measurement": "glycan array binding signal (z-score)", "setting": "[20]", "value": -0.565}, {"measurement": "glycan array binding signal (z-score)", "setting": "[21]", "value": -0.425}, {"measurement": "glycan array binding signal (z-score)", "setting": "[22]", "value": -0.31}, {"measurement": "glycan array binding signal (z-score)", "setting": "[23]", "value": -0.462}, {"measurement": "glycan array binding signal (z-score)", "setting": "GlcNAc(b1-3)Fuc", "value": 0.545}, {"measurement": "glycan array binding signal (z-score)", "setting": "GlcNAc(b1-3)Gal", "value": -0.502}, {"measurement": "glycan array binding signal (z-score)", "setting": "[24]", "value": -0.014}, {"measurement": "glycan array binding signal (z-score)", "setting": "GlcNAc(b1-3)Gal(b1-4)Glc", "value": -0.514}, {"measurement": "glycan array binding signal (z-score)", "setting": "[25]", "value": -0.445}, {"measurement": "glycan array binding signal (z-score)", "setting": "[26]", "value": -0.226}, {"measurement": "glycan array binding signal (z-score)", "setting": "[27]", "value": 0.003}, {"measurement": "glycan array binding signal (z-score)", "setting": "[28]", "value": -0.371}, {"measurement": "glycan array binding signal (z-score)", "setting": "[29]", "value": -0.488}, {"measurement": "glycan array binding signal (z-score)", "setting": "[30]", "value": 0.031}]}]}
